Assay results as given in the supplement of paper PMC12217912.
This is one part of the list. The full chains were built here from the parent and the listed change. Inactive controls read about 0.05.

B1: TEV protease; numbered along this chain (parent)
chain: MGESLFKGPRDYNPISSSICHLTNESDGHTTSLYGIGFGPFIITNKHLFRRNNGTLVVQSLHGVFKVKDTTTLQQHLVDGRDMIIIRMPKDFPPFPQKLKFREPQREERICLVTTNFQTKSMSSMVSDTSCTFPSGDGIFWKHWIQTKDGQCGSPLVSTRDGFIVGIHSASNFTNTNNYFTSVPKNFMELLTNQEAQQWVSGWRLNADSVLWGGHKVFMVKPEEPFQPVKEATQL

Variants of: B1
Experiment: raw area under fraction-flipped curve 0-4 h after induction (AUC4h, not background-subtracted), DNA-recorder readout of cleavage of the substrate (dimensionless); higher = more cleavage of the substrate by the protease variant
Conditions: temperature: 34 °C; time window: 0-4 h after rhamnose induction
Protocol: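 In vivo DNA recorder in E. coli TOP10(DE3) ΔrhaA at 34 °C. Each TEVp single-site mutant (parent TEVp 0) is paired with a single-site variant of the 7-mer TEVs (canonical ENLYFQ|S). The substrate sits between flexible linkers in a Bxb1-sfGFP-TEVs-SsrA fusion, so cleavage stabilises Bxb1 and speeds flipping of a recombination array, read by NGS. The value is the raw area under the fraction-flipped curve over 0-4 h after rhamnose induction (AUC4h), with ≥20 reads per time point. It is not background-subtracted; inactive controls average about 0.047.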
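Also: Bxb1 expression induced with 0.2% (w/v) L-rhamnose at OD600 near 0.5, cultures sampled hourly, flipped fraction per protease–substrate barcode pair counted by paired-end Illumina sequencing.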

Row | Variant | area with substrate ENAYFQS | area with substrate ENDYFQS | area with substrate ENEYFQS | area with substrate ENGYFQS | area with substrate ENHYFQS | area with substrate ENIYFQS | area with substrate ENKYFQS | area with substrate ENMYFQS | area with substrate ENNYFQS | area with substrate ENQYFQS | area with substrate ENSYFQS | area with substrate ENYYFQS | area with substrate ENFYFQS | area with substrate ENPYFQS | area with substrate ENRYFQS | area with substrate ENVYFQS | area with substrate ENCYFQS | area with substrate ENTYFQS | area with substrate ENWYFQS
1 | P225H | 0.0769 | 0.0721 | 0.0603 | 0.06 | 0.0392 | 0.0932 | 0.0489 | 0.0664 | 0.0607 | 0.0513 | 0.0641 | 0.089 |  |  |  |  |  |  | 
2 | F226R | 0.0635 | 0.0667 | 0.0581 | 0.0645 | 0.0597 | 0.118 | 0.0591 |  | 0.049 | 0.0541 | 0.0519 |  | 0.064 | 0.0749 | 0.054 | 0.0708 |  |  | 
3 | K221W | 0.0622 | 0.0636 | 0.0697 | 0.0614 |  |  |  |  |  | 0.0682 | 0.0596 |  |  |  |  | 0.0616 | 0.0654 | 0.0891 | 
4 | G37Y |  | 0.0474 | 0.051 | 0.0524 | 0.0478 | 0.0722 |  |  | 0.0466 |  | 0.0595 | 0.0555 | 0.0735 |  | 0.0592 |  | 0.0521 |  | 
5 | G37H |  | 0.0579 | 0.0549 | 0.0572 |  | 0.0915 | 0.0655 |  | 0.0555 | 0.0544 | 0.079 |  | 0.053 |  | 0.0558 | 0.0603 | 0.0456 | 0.0589 | 0.0709
6 | F218M | 0.0756 | 0.0609 | 0.0622 |  |  | 0.102 |  |  | 0.0567 | 0.0577 |  |  | 0.0666 | 0.0625 | 0.0496 |  |  |  | 
7 | H47Q |  | 0.056 | 0.0672 | 0.0979 | 0.0579 |  | 0.0563 |  | 0.0652 | 0.0558 | 0.0569 | 0.0668 | 0.0785 |  | 0.052 | 0.059 | 0.0636 | 0.066 | 
8 | S17I |  | 0.0578 | 0.0596 | 0.059 | 0.049 | 0.124 | 0.0691 |  | 0.0617 | 0.0579 | 0.0662 | 0.0768 |  | 0.0584 |  | 0.0739 | 0.0687 |  | 
9 | G80S |  |  | 0.0673 | 0.0609 | 0.0387 |  |  |  | 0.057 |  |  | 0.083 | 0.049 |  | 0.0359 | 0.0694 | 0.0594 | 0.0631 | 
10 | V113F |  |  |  | 0.0867 |  |  | 0.0574 | 0.0768 | 0.0654 |  |  |  | 0.157 |  | 0.0526 | 0.0692 | 0.0733 | 0.0667 | 
11 | T23D |  | 0.0518 | 0.0526 | 0.0624 | 0.0611 |  | 0.0569 |  | 0.0502 | 0.0502 |  | 0.0542 | 0.0649 | 0.0626 | 0.0475 | 0.0723 | 0.0467 | 0.05 | 0.0309
12 | D82P |  | 0.056 | 0.0651 |  | 0.0568 | 0.0579 |  |  | 0.0543 | 0.0667 | 0.116 | 0.0577 |  |  | 0.0694 | 0.0619 | 0.0538 |  | 
13 | L235K | 0.0579 | 0.0622 |  |  |  |  |  | 0.118 |  | 0.0593 | 0.0435 |  |  | 0.0695 | 0.0608 |  | 0.0757 |  | 
14 | V217Y | 0.0472 | 0.0463 | 0.0574 | 0.0524 | 0.0546 |  |  |  | 0.0582 | 0.048 | 0.0607 | 0.0413 |  |  | 0.0656 | 0.0587 | 0.0564 |  | 0.0491
15 | V217S | 0.061 | 0.0538 |  |  | 0.0598 | 0.0736 | 0.0521 | 0.0707 |  | 0.0592 | 0.0521 | 0.0219 | 0.0586 | 0.0442 |  |  | 0.0517 | 0.0679 | 0.0591
